Experimental data from article PMC8462379.
Results are given in words; binding and its absence hold for the method and conditions named. For some assays here: Binding seen in cells or lysates may run through a third protein. Some entries that bind do so weakly or less than the wild type.

The chains behind the UniProt entries cited, without tags or fusion partners. Where a name states a change or a piece, a line headed by the entry shows the natural chain unless it says otherwise. Residues count along the entry.
UniProt O48963: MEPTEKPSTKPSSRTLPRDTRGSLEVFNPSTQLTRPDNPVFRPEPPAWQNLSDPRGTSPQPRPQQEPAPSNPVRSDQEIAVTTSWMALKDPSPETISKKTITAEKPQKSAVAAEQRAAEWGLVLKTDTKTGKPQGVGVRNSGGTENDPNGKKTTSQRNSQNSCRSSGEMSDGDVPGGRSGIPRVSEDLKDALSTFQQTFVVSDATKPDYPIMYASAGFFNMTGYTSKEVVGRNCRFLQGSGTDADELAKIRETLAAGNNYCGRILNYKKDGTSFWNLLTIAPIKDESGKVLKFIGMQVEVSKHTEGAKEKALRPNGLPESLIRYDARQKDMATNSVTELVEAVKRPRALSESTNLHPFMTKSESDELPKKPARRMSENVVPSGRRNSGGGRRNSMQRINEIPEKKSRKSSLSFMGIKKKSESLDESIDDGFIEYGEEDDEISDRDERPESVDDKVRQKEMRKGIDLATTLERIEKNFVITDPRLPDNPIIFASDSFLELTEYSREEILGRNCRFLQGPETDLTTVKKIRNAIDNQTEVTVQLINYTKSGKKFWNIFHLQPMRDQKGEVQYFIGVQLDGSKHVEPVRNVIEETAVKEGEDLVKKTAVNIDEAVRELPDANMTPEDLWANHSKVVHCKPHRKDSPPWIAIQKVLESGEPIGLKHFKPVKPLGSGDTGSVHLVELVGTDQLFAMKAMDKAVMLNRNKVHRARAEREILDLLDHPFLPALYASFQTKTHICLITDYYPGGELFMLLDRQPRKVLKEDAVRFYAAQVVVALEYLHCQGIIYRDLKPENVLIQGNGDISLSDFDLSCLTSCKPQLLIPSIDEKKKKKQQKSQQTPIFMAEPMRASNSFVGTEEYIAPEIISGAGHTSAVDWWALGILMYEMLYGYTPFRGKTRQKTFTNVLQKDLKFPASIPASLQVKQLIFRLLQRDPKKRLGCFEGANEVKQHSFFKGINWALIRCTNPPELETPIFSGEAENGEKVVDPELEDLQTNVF
N-terminal PHOT1 fragment (PHOT1N), amino acids 1-619, MYTH fusion: residues 1-619 of O48963
UniProt P93025: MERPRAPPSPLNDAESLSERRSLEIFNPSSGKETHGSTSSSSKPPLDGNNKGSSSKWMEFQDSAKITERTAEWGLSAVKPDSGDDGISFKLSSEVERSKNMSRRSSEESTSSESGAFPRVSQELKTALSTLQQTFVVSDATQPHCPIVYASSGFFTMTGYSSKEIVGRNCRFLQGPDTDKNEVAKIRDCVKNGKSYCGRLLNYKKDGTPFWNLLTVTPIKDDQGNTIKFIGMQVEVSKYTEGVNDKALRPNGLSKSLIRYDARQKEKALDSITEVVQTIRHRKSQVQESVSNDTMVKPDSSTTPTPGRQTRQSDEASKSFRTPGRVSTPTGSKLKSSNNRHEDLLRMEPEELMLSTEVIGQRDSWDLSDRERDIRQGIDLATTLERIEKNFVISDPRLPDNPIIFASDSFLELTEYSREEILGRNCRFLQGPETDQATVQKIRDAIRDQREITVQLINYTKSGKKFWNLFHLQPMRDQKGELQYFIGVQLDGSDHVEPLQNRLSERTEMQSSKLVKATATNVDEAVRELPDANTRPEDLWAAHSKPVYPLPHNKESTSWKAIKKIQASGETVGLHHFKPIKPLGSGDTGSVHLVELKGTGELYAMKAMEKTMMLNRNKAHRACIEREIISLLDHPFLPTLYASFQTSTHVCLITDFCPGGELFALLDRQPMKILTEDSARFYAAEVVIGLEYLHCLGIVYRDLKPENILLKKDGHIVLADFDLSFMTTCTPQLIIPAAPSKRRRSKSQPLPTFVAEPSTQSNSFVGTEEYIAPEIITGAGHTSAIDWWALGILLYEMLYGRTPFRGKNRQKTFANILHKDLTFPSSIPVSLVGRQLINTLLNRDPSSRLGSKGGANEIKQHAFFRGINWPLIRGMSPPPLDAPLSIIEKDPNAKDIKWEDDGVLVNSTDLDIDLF
N-terminal PHOT2 fragment (PHOT2N), amino acids 1-574, MYTH fusion: residues 1-574 of P93025
UniProt Q9FLP6: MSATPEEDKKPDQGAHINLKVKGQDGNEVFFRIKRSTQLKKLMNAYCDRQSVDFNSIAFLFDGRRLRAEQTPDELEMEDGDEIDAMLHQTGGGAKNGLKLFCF
UniProt Q8GYH7: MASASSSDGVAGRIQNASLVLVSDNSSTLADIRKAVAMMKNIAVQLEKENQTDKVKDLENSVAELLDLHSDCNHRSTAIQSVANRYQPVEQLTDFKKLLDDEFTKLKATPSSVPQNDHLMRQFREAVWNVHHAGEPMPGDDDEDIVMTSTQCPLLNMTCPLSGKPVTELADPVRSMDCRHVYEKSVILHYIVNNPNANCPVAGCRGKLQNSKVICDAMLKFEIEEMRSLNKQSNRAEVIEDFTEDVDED
UniProt Q8VZI7: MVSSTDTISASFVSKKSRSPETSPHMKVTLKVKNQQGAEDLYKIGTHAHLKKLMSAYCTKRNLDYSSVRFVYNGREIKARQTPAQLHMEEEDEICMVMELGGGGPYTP
UniProt Q9FLP5: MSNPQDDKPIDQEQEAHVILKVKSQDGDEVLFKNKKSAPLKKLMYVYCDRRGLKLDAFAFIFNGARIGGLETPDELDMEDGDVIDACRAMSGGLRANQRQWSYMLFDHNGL
UniProt P55852: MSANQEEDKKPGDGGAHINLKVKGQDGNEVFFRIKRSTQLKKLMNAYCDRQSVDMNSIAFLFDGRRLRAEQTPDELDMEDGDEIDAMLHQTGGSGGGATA
UniProt Q680Q4: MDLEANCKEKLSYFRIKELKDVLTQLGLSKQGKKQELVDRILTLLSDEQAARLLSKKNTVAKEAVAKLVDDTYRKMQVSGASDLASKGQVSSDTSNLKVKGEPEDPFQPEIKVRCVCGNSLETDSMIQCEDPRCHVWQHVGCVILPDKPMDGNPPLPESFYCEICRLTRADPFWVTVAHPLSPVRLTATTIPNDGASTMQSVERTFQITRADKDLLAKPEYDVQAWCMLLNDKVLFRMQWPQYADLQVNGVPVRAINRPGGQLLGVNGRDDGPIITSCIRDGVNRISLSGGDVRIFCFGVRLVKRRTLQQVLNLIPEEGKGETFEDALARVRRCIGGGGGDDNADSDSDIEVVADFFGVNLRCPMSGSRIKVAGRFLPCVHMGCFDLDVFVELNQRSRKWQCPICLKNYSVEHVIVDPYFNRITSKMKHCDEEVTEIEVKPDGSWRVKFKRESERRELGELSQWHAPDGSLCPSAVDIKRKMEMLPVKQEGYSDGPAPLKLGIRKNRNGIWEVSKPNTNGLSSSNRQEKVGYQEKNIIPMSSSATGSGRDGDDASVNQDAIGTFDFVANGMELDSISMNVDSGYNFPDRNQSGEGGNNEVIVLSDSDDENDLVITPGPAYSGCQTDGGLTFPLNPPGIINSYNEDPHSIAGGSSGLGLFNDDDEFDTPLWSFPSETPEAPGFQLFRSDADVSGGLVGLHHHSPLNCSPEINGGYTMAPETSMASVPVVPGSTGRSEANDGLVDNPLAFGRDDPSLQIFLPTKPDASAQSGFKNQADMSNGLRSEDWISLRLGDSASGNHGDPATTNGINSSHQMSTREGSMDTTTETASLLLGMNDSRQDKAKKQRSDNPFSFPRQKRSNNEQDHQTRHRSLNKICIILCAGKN

Key:
[1] = target: PHOT1-cGFP (Arabidopsis thaliana) (UniProt O48963); assay: split reporter; BiFC with nGFP and cGFP fusions co-expressed transiently in N. benthamiana leaf epidermal cells; confocal microscopy 2 d after transformation
[2] = target: PHOT2-cGFP (Arabidopsis thaliana) (UniProt P93025); assay: as above
[3] = target: nGFP-PHOT1 (Arabidopsis thaliana) (UniProt O48963); assay: as above
[4] = target: nGFP-PHOT2 (Arabidopsis thaliana) (UniProt P93025); assay: as above
[5] = target: N-terminal PHOT2 fragment (PHOT2N), amino acids 1-574, MYTH fusion (Arabidopsis thaliana) (UniProt P93025); assay: two-hybrid; split-ubiquitin-based membrane yeast two hybrid (MYTH); phot parts as baits, SUMO proteins as preys; growth on SC-Leu-Trp-His with 5 mM 3-AT, 30°C, 4 d, in darkness or under blue light (about 20 µmol m^-2 s^-1, 455 nm)
[6] = target: N-terminal PHOT1 fragment (PHOT1N), amino acids 1-619, MYTH fusion (Arabidopsis thaliana) (UniProt O48963); assay: as above

With nGFP-SUMO2 (from UniProt Q9FLP6 1-103) the binding [1] was “binds” and the binding [2] was “binds”.

In the case of “MMS21-cGFP (from UniProt Q8GYH7 1-249) (enzyme)”, the binding [3] is reported as “binds” and the binding [4] is reported as “binds”.

For nGFP-SUMO5 (from UniProt Q8VZI7 1-108), the binding [1] was “no binding” and the binding [2] was “no binding”.

For “MMS21, MYTH fusion (from UniProt Q8GYH7 1-249) (enzyme)”, the binding [5] was “binds weakly” and the binding [6] was “binds weakly”.

nGFP-SUMO3 (from UniProt Q9FLP5 1-111) was tested, and the binding [1] was “binds” and the binding [2] was “binds”.

With nGFP-SUMO1 (from UniProt P55852 1-100) the binding [1] was “binds” and the binding [2] was “binds”.

“SIZ1, MYTH fusion (from UniProt Q680Q4 1-884) (enzyme)” was tested, and the binding [5] was “binds weakly” and the binding [6] was “binds weakly”.
